Over roughly 33,000 sequences, “E-score (-0.5 to 0.5)” has its median near -0.036; the highest 2% begin near 0.37. The list shows a part of the results.
target: T1, Yer064c (UniProt P40041); assay: PBM E-score (8-mer binding enrichment) (E-score (-0.5 to 0.5)); higher = stronger / more preferred TF binding; most listed sequences are background and not binding sites; settings: protein concentration: 200 nM; construct: GST-full length
T1 sequence: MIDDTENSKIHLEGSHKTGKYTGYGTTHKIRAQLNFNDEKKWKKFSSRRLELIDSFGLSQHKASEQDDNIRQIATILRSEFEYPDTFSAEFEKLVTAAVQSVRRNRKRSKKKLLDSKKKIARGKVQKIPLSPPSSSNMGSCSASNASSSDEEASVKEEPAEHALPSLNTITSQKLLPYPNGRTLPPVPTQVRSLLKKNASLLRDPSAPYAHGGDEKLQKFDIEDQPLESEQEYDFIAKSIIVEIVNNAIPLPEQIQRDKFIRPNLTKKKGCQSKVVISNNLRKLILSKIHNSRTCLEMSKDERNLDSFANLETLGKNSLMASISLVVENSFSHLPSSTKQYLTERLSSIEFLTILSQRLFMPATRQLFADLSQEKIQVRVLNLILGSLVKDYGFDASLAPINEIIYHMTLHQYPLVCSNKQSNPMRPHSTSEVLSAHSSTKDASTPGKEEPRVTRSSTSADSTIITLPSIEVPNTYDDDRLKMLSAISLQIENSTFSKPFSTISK
How it was run: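 The E-score, a modified Wilcoxon-Mann-Whitney statistic, was computed by the Universal PBM Analysis Suite for every ungapped eight-base word pooled with its reverse complement. Scans behind it were normalised with masliner after bound GST-tagged yeast transcription factors were detected with fluorescent anti-GST. The proteins, at about 100-200 nM, had been applied to universal all-10-mer Agilent arrays made double-stranded by primer extension.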

Sequence	PBM E-score
CCGGGTCA	-0.207
TGAAATCA	0.346
ACTTGAAA	-0.0416
CCCATTCA	-0.016
ATACAACC	-0.181
ACCGATGA	0.113
CGTTTGGC	0.0755
CACGTAGA	-0.122
AGGTTGTG	-0.131
ATGGCCGC	-0.348
CGACTAAC	0.43
GAACCCCA	-0.191
CCGATCTC	-0.138
CGGTACAG	-0.12
AGTGAATC	0.362
CGGTTAAG	0.0842
AAGGACCT	-0.114
CACATCCG	0.0665
GAATCCCC	-0.113
GCAAGAGC	-0.106
CGATGACG	-0.172
ACTCAGTC	0.411
GCCAGTCA	0.349
AGCATAAT	-0.0978
GCCCTCTA	-0.0486

Sequence	PBM E-score
ACGCTCAG	0.121
GCAGGGCA	-0.179
CAGTTACA	0.00457
AAAACATG	0.067
GCGATTCA	0.342
AGCTGATC	-0.0353
CTCTCGAC	-0.0566
AGGGACCG	-0.135
AGATATCG	-0.0552
AGTAGTAA	0.156
CGACGGGA	-0.088
CACTGTGA	0.114
CTCTTGAA	0.053
AATTAGAC	0.182
ATCCGGCA	-0.029
AGGAGCGA	0.0248
ATTGGTCA	0.0959
ATGACTAG	0.48
TACGCAAA	0.0264
ATAGAACG	-0.071
ATCATCGA	0.31
AGTCGAGA	0.283
TAGTGGCA	-0.118
AAAGGCAG	0.0685
TCAACGGA	0.124

Sequence	PBM E-score
CAACGATC	0.0269
TGAGCCAA	0.0764
GACACACC	0.0688
CTATGCAC	-0.0629
AAGAATTG	0.0411
GATGCGCC	-0.231
CAACTGGA	-0.163
TAGCCATA	0.28
ATGGGAGC	-0.227
ACGCTAGC	-0.195
AGAATTAC	-0.0089
CCAGACCA	-0.0693
CTCACACA	0.141
GAATGTCA	0.0928
GCTAGAAA	-0.0238
AATGTGTC	0.153
CCATCCCA	0.0189
TGACACAA	0.0204
CCCTTAGA	-0.0762
CGTTCTCA	-0.19
GGTTCGAC	0.108
CAACCATC	-0.0441
CAGAGAGC	-0.116
AACGGGCC	-0.291
ACTACGCA	0.082

Sequence	PBM E-score
AGTGCATA	-0.135
ATCTCCCC	-0.0761
ACAAATTA	0.0974
ATGGGTCA	0.282
AACGCGGG	-0.318
AATGAAAC	0.153
CACCGAGG	-0.271
GATCAAGA	0.139
CATCAGCC	-0.0354
ACCCTGGG	0.012
AAACTCGG	0.122
ACCTCCTG	-0.0757
CCAGCCAG	-0.2
AGATATTA	-0.0628
GCGATCCA	-0.145
AGACGCCA	-0.212
TACCTTCA	-0.0946
CGACGCCC	-0.32
CCGCTTAA	0.0255
ACCTGGGG	-0.0698
GGACTGGA	-0.0268
AGGCTATA	-0.025
CATGATCA	0.29
TAAGAGTA	0.146
CTGCATTA	0.00646

Sequence	PBM E-score
CCAGAGGC	-0.335
AAGTGTCT	0.11
ATTTACAG	0.126
AAAGAGTC	0.437
GCACCGCA	-0.298
ACAGATTC	0.126
GTACATAA	-0.0115
TGTCGACA	-0.137
AGGTGAAG	-0.0576
AAGGAATT	-0.184
ACTGCAGC	-0.0578
ATCGGCAA	-0.127
ACCGCCAC	-0.124
GCCGCCCC	-0.232
CTGCTGCC	-0.207
ATCTCTTA	0.0455
GGTAGACA	0.0968
ATGTGCAC	0.0933
AGAGTCCC	0.0408
AAGCAGCT	-0.178
ACGAACGG	-0.127
GCATAGAA	-0.207
CAAGCGAG	0.105
CATCCCCA	-0.105
AATAGAGA	-0.161

Sequence	PBM E-score
CATTAATA	-0.0259
GTGGAGTA	0.0154
ACGTCTCG	-0.077
ACCCAGTA	-0.202
AACCGTGG	-0.0728
CCGCGCGC	-0.0622
AGCACGAG	0.103
GGTATCAA	0.0678
ATGTCGCG	-0.199
AGGGATCC	-0.282
CGAGAACG	-0.0923
GCTGACCA	0.0107
ACTTGTTC	0.0163
GCGAGACC	-0.033
AATGAATT	0.0966
GAAGAACC	-0.115
CCTCCCGC	-0.193
ACAGGACC	-0.0854
GTTGGGGA	-0.0796
AGTGGGTA	0.0808
AGACCGAT	-0.214
AGCATCCC	-0.319
CACATGGG	-0.121
TATGGGAA	-0.0972
AAAAACGA	0.0447

Sequence	PBM E-score
ACTACAAC	0.196
CACGCAGA	0.0753
TCTCCGCA	-0.0308
CAGGTACC	-0.0821
GAACGGGC	-0.217
CCTCCTCG	-0.211
GAAGCGTC	-0.193
AGTCTGCG	0.108
CCCGACAC	-0.23
ATCCCATA	-0.191
CAAGTTGG	-0.111
CATGGTCC	-0.0176
ATACTGCG	-0.106
AGTCACAA	0.46
GCAAGCCC	-0.323
GTATGAGA	0.149
CATGCGGC	-0.0449
ATAGCAAA	-0.0715
ATGAGGAA	-0.0169
AAGCGCGG	-0.177
CCAAGCGA	-0.0702
CACTCTCC	-0.0733

Reference: the supplement of paper PMC3334620
